According to the supplement of paper PMC10338343:
± gives the standard deviation. Over roughly 6,600 sequences, “pre-steady-state target cleavage rate” has its median near 0.07; the highest 2% begin near 0.72. The list shows a part of the results, in another mix than the full data.

What follows are sequences tested on MIWI (PIWIL1) piRISC loaded with Kctd7 piRNA (30 nt) (assay: pre-steady-state target cleavage rate (min^-1); MIWI and MILI are mouse PIWI proteins and EfPiwi is from a freshwater sponge; tags in brackets are library labels; higher = faster piRNA-guided slicing of the target). Conditions: guide: Kctd7 piRNA 5'p-UGUUAAUCUCUCAGAGAAGGUGACAGUGAU; auxiliary factor: 500 nM mouse GTSF1.
Outline: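 With or without 500 nM GTSF1 partner protein, 1 nM active affinity-purified piRISC carrying one synthetic guide was mixed with 0.1 nM transcribed, DNA-blocked target RNA library in HEPES–potassium acetate buffer at 33 °C for 0–8 or 0–960 min. Uncleaved targets were sequenced and normalised to depth and to weakly complementary targets, three trials were pooled, and k3 was capped at 0.0001 min^-1. The pre-steady-state cleavage rate came from a burst-and-steady-state fit.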

Sequence | pre-steady-state target cleavage rate
UAGUGACACACGUUGUCUGAGAGAUUAACA | 0.0596 ± 0.011
AUGACUGUCACCUUCUCUGAGAGAUUAUCA | 0.347 ± 0.038
UAGUGAGAGUCCUUCUCUGAGAGAUUAUGA | 0.00681 ± 0.0037
UACACUCAGACCUUCUCUGAGAGAUUAACA | 0.353 ± 0.026
AUCACUGACACCUUCUCUGAGAGAUUAAGA | 0.167 ± 0.034
UUGACUGUCAGCUUCUCUGAGAGAUUAACA | 0.695 ± 0.038
UAGUGACACUCCUACUCUGAGAGAUUAACA | 0.0652 ± 0.0084
UAGUGACAGUCCUUCACUGAGAGAUUUACA | 0.0106 ± 0.0034
UAGUGAGUCACCUUCUCUGAGAGAUUAGCA | 0.19 ± 0.023
UAGUGUCUCUCCUUCUCUGAGAGAUUAACA | 0.0958 ± 0.012
UAGACUGUGACCUUCUCUGAGAGAAUAACA | 0.261 ± 0.041
UACACUGUGACCUACUCUGAGAGAUUAACA | 0.384 ± 0.021
UAGAACUGUCACCUUCUCUGAGAGAUUAACA | 0.682 ± 0.054
UAGACAGUCACCUUCUCUGAGUGAUUAACA | 0.0307 ± 0.006
UAGUGACACACGUUCUCUGAGACAUUAACA | 0.00339 ± 0.0024
UAGUGACUCACCAUCUCUGAGAGAUUUACA | 0.0844 ± 0.013
UAGUGAGUCUCGUUCUCUGAGAGAUUAACA | 0.315 ± 0.023
UAGUGACUCACCUUGUCUGAGAGUUUAACA | 0.0484 ± 0.016
UAGUGACACACCUUCUCUGUGAGAUAAACA | 0.0853 ± 0.014
UAGUGACACACCUUCACUGAGAGAUUAUCA | 0.0626 ± 0.016
UAGUGACAGUGGAUCUCUGAGAGAUUCACA | < 0.0001
UAGUGAGUCACCUUCUCUGAGAGAUUAAA | 0.226 ± 0.035
AUCACUGUCAGCUUCUCUGUGAGAUUAACA | 0.237 ± 0.013
UAGACUGUCACCUUCUCUCAGAGAUUAUGA | 0.00711 ± 0.0033

Sequence | pre-steady-state target cleavage rate
UAGUGUGUCACUUUCUCUGAGAGAUUAACA | 0.553 ± 0.026
UAGUGACAGUGGAAGUCUGUCAGAUUAACA | < 0.0001
UAGUGACUCCCCUUCUCUGAGAGAUUAACA | 0.347 ± 0.037
UAGUGACACACCUUCUCUGAGAGAUAUACA | 0.118 ± 0.024
UAGUCUGUCACCUUCACUGAGACAUUAACA | 0.257 ± 0.033
UAGUCUGUCACCUUCUCUGUGAGAAUAACA | 0.0572 ± 0.01
UAGUGUGCUCACCUUCUCUGAGAGAUUAACA | 0.605 ± 0.046
UACACUGUCACCUUCUUGAGAGAUUAACA | 0.0539 ± 0.018
UACACAGUGACCUUCUCUGAGAGAUUAACA | 0.345 ± 0.021
UAGUGUGUCUCCUUCUCUGAGAGAUUAUCA | 0.0796 ± 0.013
UUCACUGUCACCUUCUCUGAGUGAUAAACA | 0.0317 ± 0.0065
UAGUGACAGUGGAAGAGUGAGAGAUAUACA | < 0.0001
UAGACUGUCACGUUCUCUGUGAGAUUAACA | 0.168 ± 0.011
UAGUCUGUCACUCUUCUCUGAGAGAUUAACA | 0.543 ± 0.03
UAGACUGUCACCCUUCUCUGAGAGAUUAACA | 0.517 ± 0.042
UAGUGACACACCUUCUCUGAGAGCUUAACA | 0.183 ± 0.024
UACAGUGUCACCUUCACUGAGAGAUUAACA | 0.435 ± 0.028
UAGUGAGUCACGUACUCUGAGAGAUUAACA | 0.12 ± 0.013
UAGUGACACUGGUUCUCUGAGAGAUUAACA | 0.0768 ± 0.0071
UAGUGACUCACCUUCUCUCAGACAUUAACA | 0.0177 ± 0.0033
UAGUGACAGACCUUGUCUGAGUGAUUAACA | 0.0081 ± 0.0029
UAGUGUGUCACCUUGUCUGUGAGAUUAACA | 0.125 ± 0.012
UUCACUGUCACCUUCUCUGUCUGAUUAUGA | 0.0123 ± 0.0065
UACACUGUCACGUUCUGUGAGAGAUUAACA | 0.461 ± 0.034

Sequence | pre-steady-state target cleavage rate
UAGUGUGUCAACCUUCUCUGAGAGAUUAACA | 0.211 ± 0.017
UAGACUGUCACCUUCAUCUGAGAGAUUAACA | 0.11 ± 0.025
UAGACUGUCACCUUCUCUGAGAGAGUUAACA | 0.488 ± 0.065
UAGACUGUCACGCUUCUCUGAGAGAUUAACA | 0.563 ± 0.029
AUCUCUGUCACCUUCUCUGAGAGAAUAACA | 0.462 ± 0.078
UAGUGUGUCACCUUCUCUGAGACUUUUUGA | 0.00865 ± 0.0054
UACACUGUCACCUUCUCUGAGAGGUUAACA | 0.322 ± 0.025
AUCACUGUCACCUUCUCUCAGUGAUUAACA | 0.00637 ± 0.0031
UAGUCUGUCACCUUCUCACAGAGAUUAAGA | 0.00417 ± 0.0035
UAGUGACAGACCUUCUGUGAGAGAUUAUCA | 0.0129 ± 0.0034
UAGUGUGUGACCUUCUCUGAGACAUUAACA | 0.0289 ± 0.0064
UAGUGACAGACCUUCUCUGAGAGAUUACA | 0.0295 ± 0.0081
UACACUGUCUCCUUCUCUGAGAGAUAUUGA | 0.0127 ± 0.0054
UAGUGACACAGCUACUCUGAGAGAUUAACA | 0.00832 ± 0.0023
UAGUGUGUCACGAUCUCUGAGAGAUUAUGA | 0.00921 ± 0.0042
UAGUCACACACCUUCUCUGAGAGAUUAACA | 0.569 ± 0.031
AUCUCUGUCACCUUCUCUGAGAGAUAUUGA | 0.0684 ± 0.017
UACACUGUCUCCUUCUCUGUGAGAUUAACA | 0.246 ± 0.017
UACUCUGUCACCUUCUCUGAGAGAUUAAGA | 0.135 ± 0.021
UAGUGUGACACCUUCUCUGAGAGAUUAACA | 0.536 ± 0.026
UAGACUGUCACCUUGACUGAGAGAUUAACA | 0.0808 ± 0.014
UUCAGUCUCACCUUCUCUGAGAGAUUAACA | 0.547 ± 0.023
UAGUCUGUCACCUUCUCUGAGAGUAUAACA | 0.155 ± 0.02
AUCACUGUCACCUUCUGUGAGAGUUUAACA | 0.264 ± 0.037
